# According to paper PMC4336329 (PLoS ONE, 2015):
# Out of some 310,000 compounds screened, about 14,000 (4.5%) showed an effect of 50% or more. The effect is printed as a negative number. The list shows a part of the results.
# Molecular target: human ether-à-go-go-related gene (hERG) potassium channel (human, UniProt Q12809)
# Assay: primary screen, population patch clamp on CHO cells stably expressing hERG
# 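Further: peak tail current of the secondary pulse compared with the same well before compound.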
# human ether-à-go-go-related gene (hERG) potassium channel, sequence (Q12809 whole entry, looked up): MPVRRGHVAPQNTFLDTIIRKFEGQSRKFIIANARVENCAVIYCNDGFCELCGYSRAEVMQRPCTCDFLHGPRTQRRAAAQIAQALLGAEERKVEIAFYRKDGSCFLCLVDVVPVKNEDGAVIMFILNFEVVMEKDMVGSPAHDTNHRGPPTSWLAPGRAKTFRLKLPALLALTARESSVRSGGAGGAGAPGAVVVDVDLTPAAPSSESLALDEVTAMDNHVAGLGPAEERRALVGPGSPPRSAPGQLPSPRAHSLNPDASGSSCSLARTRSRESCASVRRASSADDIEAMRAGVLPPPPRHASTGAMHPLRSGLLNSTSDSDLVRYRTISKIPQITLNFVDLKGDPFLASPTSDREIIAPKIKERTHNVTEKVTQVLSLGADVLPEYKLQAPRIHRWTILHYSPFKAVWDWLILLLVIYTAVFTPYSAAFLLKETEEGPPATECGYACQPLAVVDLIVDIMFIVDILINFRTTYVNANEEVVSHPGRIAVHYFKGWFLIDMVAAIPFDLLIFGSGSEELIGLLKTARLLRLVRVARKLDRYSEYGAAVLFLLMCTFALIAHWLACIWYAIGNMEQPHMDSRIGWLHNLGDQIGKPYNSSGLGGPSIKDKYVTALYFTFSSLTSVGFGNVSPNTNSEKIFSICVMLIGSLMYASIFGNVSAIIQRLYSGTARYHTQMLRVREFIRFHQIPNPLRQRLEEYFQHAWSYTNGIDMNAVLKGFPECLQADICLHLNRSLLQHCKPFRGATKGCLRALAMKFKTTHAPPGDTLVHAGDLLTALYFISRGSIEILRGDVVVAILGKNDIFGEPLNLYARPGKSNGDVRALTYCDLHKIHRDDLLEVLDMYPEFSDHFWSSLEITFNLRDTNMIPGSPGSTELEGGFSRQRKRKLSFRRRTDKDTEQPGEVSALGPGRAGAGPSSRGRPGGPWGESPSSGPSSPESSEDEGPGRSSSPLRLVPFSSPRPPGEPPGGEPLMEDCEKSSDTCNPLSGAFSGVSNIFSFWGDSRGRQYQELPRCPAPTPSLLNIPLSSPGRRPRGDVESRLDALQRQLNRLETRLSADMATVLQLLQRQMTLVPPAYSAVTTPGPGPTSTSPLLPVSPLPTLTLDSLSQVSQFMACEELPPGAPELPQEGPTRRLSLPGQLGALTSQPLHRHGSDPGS
row,SMILES,"hERG current change (%, negative = inhibition) at 10uM [%]"
1,COc1ccc(-n2cnc3cc(NCc4ccco4)ccc32)cc1,-67.3
2,Cc1ccc(N(CC(=O)NCc2ccco2)C(=O)CCC(=O)Nc2nccs2)c(C)c1,-22.5
3,CC(C)CNC(=O)N[C@@H](CC(C)C)C(=O)O,9.58
4,CCOc1cc(C(=O)N2CCC(CC3CC(c4cccc(Br)c4)=NO3)(C(=O)NCC3CCCCC3)CC2)cc(OCC)c1OCC (stereo not shown),4.14
5,CC(=O)Nc1ccc(OCCOc2ccc(/C=C3\C(=N)N4N=C(C)SC4=NC3=O)cc2)cc1,19
6,O=C(O)CCc1nn2c3ccccc3nc2n(CCN2CCCCC2)c1=O,12.3
7,NC(=O)C1(c2ccccc2)CCCN1C(=O)c1ccc(Br)cc1 (stereo not shown),-9.26
8,Cc1ccc(S(=O)(=O)N2CC3(C)CN(S(=O)(=O)c4ccc(C)cc4)CC(C)(C2)C3)cc1,3.41
9,COc1cccc(NC(=O)C(Cc2ccccc2)n2cccc2)c1 (stereo not shown),-17
10,CCCn1nnnc1NCc1cccc(OC)c1,18.6
11,COc1ccc(NC(=O)CC(c2ccccc2)c2ccco2)cc1 (stereo not shown),8.54
12,CSc1ccc(CN(C)C(=O)CN2C(=O)NC3(CCCC3)C2=O)cc1,2.19
13,O=C(Nc1ccc(Nc2ccccc2)cc1)c1ccc(Br)o1,-8.52
14,CSCCC(NC(=O)c1ccc(C)o1)C(=O)O (stereo not shown),10.2
15,COc1ccc(N(C)S(=O)(=O)c2cccc(C(=O)NCc3ccc4c(c3)OCO4)c2)cc1,2.95
16,O=C(CNS(=O)(=O)c1ccccc1)OCC(=O)c1cccc([N+](=O)[O-])c1,-6.17
17,O=C(CN1CCC(n2nnc3cc(F)ccc32)CC1)Nc1ccccc1N1CCOCC1,-66.6
18,Cc1ccc(C2=CSC3=NS(=O)(=O)CCN23)cc1C,-4.1
19,COc1ccc(C(=O)NCC(=O)O)cc1,5.12
20,CCOC(=O)N1CCN(c2cc(=O)n(-c3ccccc3C)c(=O)[nH]2)CC1,5.23
21,O=C(N/N=C1\CCCc2c1[nH]c1ccc(Cl)cc21)c1ccncc1,-8.42
22,O=c1[nH]c(CSc2nnc(-c3ccccc3)n2C2CCCCC2)nc2ccccc12,-6.75

row,SMILES,"hERG current change (%, negative = inhibition) at 10uM [%]"
1,O=C(Nc1ccccc1-c1ccccc1)NC1CC2CCCC(C1)N2Cc1ccc(F)cc1 (stereo not shown),-66.4
2,Cc1ccc(OCc2ccc([N+](=O)[O-])cc2)c([N+](=O)[O-])n1,-29.2
3,CC1=CC(C)(C)N2C(=O)C(=Nc3ccc(O)cc3)c3cccc1c32,-5.39
4,C=C[C@@H]1C2=CCOC(=O)C2=CO[C@H]1O[C@@H]1O[C@H](CO)[C@@H](O)[C@H](O)[C@H]1O,20.1
5,CC1(C)Cc2c(C#N)c(N3CCN(C(=O)c4ccccc4)CC3)nc(-c3ccco3)c2CS1,4.82
6,COc1ccc(CCN2C(=O)CC(NNC(=O)c3ccccc3Br)C2=O)cc1OC (stereo not shown),22.8
7,CCCC(=O)N1CCN(c2ccc(NC(=O)c3ccco3)cc2)CC1,4.23
8,CN(C)C1=NC[C@H](Cc2ccccc2)N1CCc1ccc(F)cc1,-60.6
9,Cc1ccc(NC(=O)CSc2nnc(/N=C/N(C)C)s2)cc1,-7.65
10,CC(=O)Nc1ccc(C(=O)Nc2nc(-c3ccccn3)cs2)cc1,21.3
11,CCn1c(=O)c2sccc2n(Cc2cccc(C)c2)c1=O,-2.29
12,CC(Sc1nc(N)cc(N)n1)C(=O)NCCC1=CCCCC1 (stereo not shown),5.6
13,COc1ccc(NC(=O)Nc2cccnc2)c(OC)c1,30.3
14,CCCCOC(=O)c1ccc(NC(=O)/C=C/c2cccs2)cc1,-17.1
15,CCN(CC)S(=O)(=O)c1ccc(N2CCCC2)c(NC(=O)C2=COCCO2)c1,-40
16,COc1ccc(C(=O)N(Cc2sccc2C)C2CCS(=O)(=O)C2)cc1 (stereo not shown),-11.6
17,C/C(=N\NC(=O)Cc1c(C)[nH][nH]c1=O)c1cccc(Br)c1,16.3
18,COc1ccc(CN2CCCN(C)CC2)c(OC)c1C,11.1
19,COc1ccc(S(=O)(=O)Nc2ccccn2)c(C)c1C,15.1
20,COc1ccc(N2CCN(C(CNC(=O)c3cccs3)c3ccco3)CC2)cc1 (stereo not shown),18.5
21,O=C(Cn1cnc2ccccc2c1=O)N1CCN(c2ccccc2)CC1,-25.5
